PMC7819943, “Rice protein-binding microarrays: a tool to detect cis-acting elements near promoter regions in rice”
Some of the results follow.

target: T1, OsWOX13 (Oryza sativa, UniProt Q5QMM3 1-267); test: protein-binding microarray (RPBM); PBS, 2% BSA, 51.3 ng/ul salmon testes DNA, 50 uM zinc acetate, 200 nM TF, 25 C, 1 h; high values mean tight binding; settings: protein: recombinant; tags: N-terminal polyhistidine and DsRed monomer fusion (pET32a); label: CyDye5-dUTP incorporated in the synthesized complementary strand; 3' TTTTT single-stranded linker to array surface; dsDNA, one strand shown
T1 sequence: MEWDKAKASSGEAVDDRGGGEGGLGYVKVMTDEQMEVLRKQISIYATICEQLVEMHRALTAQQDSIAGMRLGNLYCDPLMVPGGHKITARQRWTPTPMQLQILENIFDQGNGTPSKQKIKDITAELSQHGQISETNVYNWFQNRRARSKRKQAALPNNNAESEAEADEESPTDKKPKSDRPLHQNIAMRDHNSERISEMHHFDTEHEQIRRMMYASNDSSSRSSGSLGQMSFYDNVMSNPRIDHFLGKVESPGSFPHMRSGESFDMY
Summary of the method: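 The binding signal for each feature is its fluorescence intensity in arbitrary units. An Axon 4000B scanner was used to read a custom Agilent array that had been made double-stranded with Cy5-dUTP primer extension, blocked with 2% BSA, incubated at 25 °C for 1 h with 200 nM protein in PBS, 2% BSA, salmon testes DNA and 50 µM zinc acetate, and washed. The protein was an N-terminal polyhistidine–DsRed transcription factor fusion from E. coli BL21-CodonPlus, purified on Ni–NTA.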

Row | Sequence | binding signal
1 | CCAATATATTTGTCAGTTTCAATTTACAGTTTTACACGTTCGGAGTCACCTAGTGCAG | 4050 fluorescence intensity (a.u.)
2 | CTGATTGCGCGCGCGCCTCCCTGCGCGGCTGATCGCGTATCGGAGTCACCTAGTGCAG | 5260 fluorescence intensity (a.u.)
3 | CATGGTGAATTGGTGATTTTATAATGATGCTAAGCTTTGACGGAGTCACCTAGTGCAG | 4860 fluorescence intensity (a.u.)
4 | TCTCAATTTTCGTAGATAATGAAAATGGTTTACACAACGTCGGAGTCACCTAGTGCAG | 5050 fluorescence intensity (a.u.)
5 | TGGTGGAAGGGGATTGATGATGGGAAGGACAGCCACAGGGCGGAGTCACCTAGTGCAG | 7220 fluorescence intensity (a.u.)
6 | GCCTAGCTAATCAATTAACTTAACCTGCCTCGCCTCTGCCCGGAGTCACCTAGTGCAG | 26300 fluorescence intensity (a.u.)
7 | GCAACAAATTTCTCTTGATTGATTTGATCTAACAACAGAACGGAGTCACCTAGTGCAG | 37800 fluorescence intensity (a.u.)
8 | TTTAATCTGTTATTAGTCATCCATCACAATCCAAGCAAGTCGGAGTCACCTAGTGCAG | 5200 fluorescence intensity (a.u.)
9 | ACAAATTGCCAACTCATGAAAGTGATCGATGATGGGCTTACGGAGTCACCTAGTGCAG | 15700 fluorescence intensity (a.u.)
10 | AATACTAATTATAAGAAAATTAAATAAAATAGATGATGAACGGAGTCACCTAGTGCAG | 17800 fluorescence intensity (a.u.)
11 | ATGATATATATTGATAAGGTATACCCTCACGTATACGGTTCGGAGTCACCTAGTGCAG | 6790 fluorescence intensity (a.u.)
12 | TAAACTATAATTAGATTTTCTTTTGGACAAGGAGATTAGACGGAGTCACCTAGTGCAG | 17200 fluorescence intensity (a.u.)
13 | ATGGCTAATTTCAGATTAATAAGTGAAATATTACCATGACCGGAGTCACCTAGTGCAG | 5970 fluorescence intensity (a.u.)
14 | TTATAATGGCCACTAATTTACTGGACAGCTGTTATACTTCCGGAGTCACCTAGTGCAG | 20200 fluorescence intensity (a.u.)
15 | CCTTGTAATTTCTTCCTCCTGACTCCACCTGCAACATTGCCGGAGTCACCTAGTGCAG | 6670 fluorescence intensity (a.u.)
16 | TACCAAATTGCTCTTGCTTATAGCCATATTTGTGTGTGTACGGAGTCACCTAGTGCAG | 3150 fluorescence intensity (a.u.)
17 | GATGAATCATTAGCACATAATTAATTAAGTATTAATTATTCGGAGTCACCTAGTGCAG | 15700 fluorescence intensity (a.u.)
18 | AATCAATCTAGTTTTAATCCTAGAGTATCTAAAGTAGTGACGGAGTCACCTAGTGCAG | 12400 fluorescence intensity (a.u.)
19 | CACAATTAATGCATGCGTTTAGAAAACAAAATGGTAACACCGGAGTCACCTAGTGCAG | 3700 fluorescence intensity (a.u.)
20 | GTTTTGAAGATTTAATTGCAATGAATTTAATGGTGTAATCCGGAGTCACCTAGTGCAG | 12100 fluorescence intensity (a.u.)
21 | CCCTCCAATCAAATTAACCTCCATATCTCTAGCAATCTGCCGGAGTCACCTAGTGCAG | 29800 fluorescence intensity (a.u.)

Row | Sequence | binding signal
22 | CAATTCAATCTGCCAAAACTGAAATTTTGACCTTGTTTTACGGAGTCACCTAGTGCAG | 7360 fluorescence intensity (a.u.)
23 | AAGTGGTTAACGAACTAATCAGGTTGGCATTGCAACGTCACGGAGTCACCTAGTGCAG | 3290 fluorescence intensity (a.u.)
24 | ATTTAATTATTTTCCTACAAGTCGAAGGAGCTCGTATAGGCGGAGTCACCTAGTGCAG | 29700 fluorescence intensity (a.u.)
25 | TAGCCAAACAGGAACAAATTGATCCACGATGGATCAATGGCGGAGTCACCTAGTGCAG | 12000 fluorescence intensity (a.u.)
26 | GTTTCTAGGTAGATTTATAATAAATTTACATACATATTTTCGGAGTCACCTAGTGCAG | 4570 fluorescence intensity (a.u.)
27 | CTGGATGATTGGATTGATTATGGACAGATTTAAATTTGCTCGGAGTCACCTAGTGCAG | 65500 fluorescence intensity (a.u.)
28 | GCGCAAAATTTCGAAATTTAATTTTGAAATGCATTTTATTCGGAGTCACCTAGTGCAG | 7620 fluorescence intensity (a.u.)
29 | TACGGGAATTGTTCTGATTGATGTTATTAATATTGGTTGGCGGAGTCACCTAGTGCAG | 49700 fluorescence intensity (a.u.)
30 | AACTCGTGTTCTAATTGGCAAGATGAGTTGATAAGATTATCGGAGTCACCTAGTGCAG | 7030 fluorescence intensity (a.u.)
31 | GTATAATTATAGCGTAGTTATATTGTAACCTTATATAACTCGGAGTCACCTAGTGCAG | 7090 fluorescence intensity (a.u.)
32 | ACATTAACATATAATTAATTAAGTTTTAATTCTCGGAAAACGGAGTCACCTAGTGCAG | 46100 fluorescence intensity (a.u.)
33 | ATGCCTCTTCAATCATTAGCCGAAGAAGCAAGTGCCTAATCGGAGTCACCTAGTGCAG | 5440 fluorescence intensity (a.u.)
34 | ACCGTGTCAAGACAAATAATTAAGGTCAGAAATTACTTATCGGAGTCACCTAGTGCAG | 3890 fluorescence intensity (a.u.)
35 | AAAACCAGGCAAGTGATTGATACGGCCGGTCCGCTTCCATCGGAGTCACCTAGTGCAG | 32500 fluorescence intensity (a.u.)
36 | TGAGACAATCAGACCCCTAATTGCGGCTCATGATTTTATACGGAGTCACCTAGTGCAG | 11800 fluorescence intensity (a.u.)
37 | GCTAAAATTGAAAGTTTGGTTGAAATTGGAATAATGTGATCGGAGTCACCTAGTGCAG | 24900 fluorescence intensity (a.u.)
38 | AGCACAAGACCCGTCAATCATTTCATAAAGGATCCAAAGGCGGAGTCACCTAGTGCAG | 7440 fluorescence intensity (a.u.)
39 | GTTTATGTGTGATTGGTACAATCTGGAGAGAAACAAACCACGGAGTCACCTAGTGCAG | 16200 fluorescence intensity (a.u.)
40 | ATACTAATACTTAATTAACCACGCGCTAATAGACCCCTCGCGGAGTCACCTAGTGCAG | 9190 fluorescence intensity (a.u.)
41 | CTCTTGACAGTCATATAAAGGACTCAGTAGTTGACCATCACGGAGTCACCTAGTGCAG | 5230 fluorescence intensity (a.u.)
42 | TAGTAGATTATAAGAAGTTATAATTGTAGAGTTAATCTTGCGGAGTCACCTAGTGCAG | 5400 fluorescence intensity (a.u.)
